In the supplement of paper PMC11417369:
The list shows a part of the results.

Test system: PfAP2-HC AP2 domain (GST-tagged)
Experiment: gcPBM binding intensity (ln(normalized median fluorescence intensity)); higher = stronger DNA binding
Method in brief: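 GST-tagged P. falciparum DNA-binding domains produced in E. coli were incubated for 1 h on an Agilent 4 × 180k array of primer-extended double-stranded 36-bp intergenic genomic probes with negative controls. Binding intensity is the highest Masliner-normalised natural-log median intensity across replicate spots of either probe orientation, with bound protein detected by Alexa488 anti-GST antibody at 488 nm.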

Row | Sequence | gcPBM binding intensity (ln)
1 | CCATAAGATATATGTAGTACATATTATATATATATA [XGTACX_site2104] | 9.65
2 | TATACACATATATAAACACACAAAAAAAAAAAAAAA [CACACA_site7041] | 9.57
3 | AATATATAGCTAAAAACACACAAATATATACGCATA [CACACA_site3608] | 9.84
4 | GTTTACATTAAAAATTGTACTCTGTATGAATAATAT [XGTACX_site80] | 9.57
5 | CTTAAAAAAACCTTAACACACATAAACTCTAATTTA [CACACA_site7430] | 9.68
6 | ATTTCATTTTATAAGTGTACAATAAAAAAAAAAAAA [XGTACX_site8677] | 9.44
7 | ATATAAACAGAAAATAGTACTTTATATTGAAAAAAA [XGTACX_site7183] | 9.69
8 | GATGATACAAAGTAATGTACATAAATACACATATTG [XGTACX_site3177] | 9.8
9 | AAATTTGATATAAAAAGTACAAAATGTTCCTCAGCT [XGTACX_site809] | 9.76
10 | CTCTTCTATATATAAGCATGCATTCATAATAATTTA [TGCATGCA_site679] | 9.6
11 | TAGATACTTGTCATGGGTACATATCGTACCTTTTGG [XGTACX_site6781] | 9.45
12 | TTTATATGATATATTACACACAAAAAAAAAAAAAAA [CACACA_site3549] | 9.47
13 | TCATTCATATGTTACACACACACACCCACATAAAAA [CACACA_site3245] | 11.2
14 | CATAATTATGCAATTGCACACAACTATCATTTTTTT [CACACA_site2997] | 10.2
15 | AAACCAAGGCACAATAATTAAATAAATAAAATCATG [GTGCAC_negctrl_site574] | 9.58
16 | ATTTATATATATATAGGTACACATATTTATATATAA [XGTACX_site8487] | 9.56
17 | ATATAATTTTTCAAGTGTACTTTTTTTTTTTAACAT [XGTACX_site3050] | 9.68
18 | GATTATATATGAAAATGTACAAATATATATATATAT [XGTACX_site5963] | 9.58
19 | AAAAAAAAAAAAAAAAAAAAAAAAAAATACATATGT [XGTACX_negctrl_site95] | 9.44
20 | TTTTTGTATGCTTCCCGACTACATTATGCCATAAAT [CACACA_negctrl_site136] | 9.72
21 | TATATATAAAAAACATGTACACAAATTTACATACAT [XGTACX_site4777] | 9.79
22 | TCACTAAACCATTAGAGTACTTGACATATAATGAGC [XGTACX_site3272] | 9.45
23 | AAGAGTTAAAAAAATACACACATATATATTTTTTTA [CACACA_site1980] | 9.86

Row | Sequence | gcPBM binding intensity (ln)
24 | ATATATCTATATGTGTGTACATATAAGTATTTATAT [XGTACX_site5333] | 9.87
25 | ACATATAAACTGTATACACACAAATATTGCATATAT [CACACA_site6804] | 9.92
26 | AGAAAAGAGAAATGGGCACACACACCCATATTATAT [CACACA_site8433] | 10.1
27 | TACATTCTAAATATTACACACTTTATAAAATAATAA [CACACA_site4069] | 9.46
28 | ATATATATAAATATATGTACTAATATATACATATAT [XGTACX_site2289] | 9.61
29 | AAGGTGGGAAAAAATAGTACACAACAAAAATGTATG [XGTACX_site8741] | 9.74
30 | AAAAAAATAAAAAATATATAAATAATTAATACATGT [GTGCAC_negctrl_site633] | 9.73
31 | CACACAACTATCAAGGTGCTAAAATGAAATAATATA [GTGCAC_site9871] | 9.66
32 | AATATAAATAAAAACACACACACACGGATATTTATA [CACACA_site7134] | 10.8
33 | CCCATGTAATATTAAACACACACTCATATAACACAA [CACACA_site7906] | 10
34 | ATATTATATCTAATCGTGCACAACTGTACATTTGTC | 9.74
35 | TTGTATCATATATTATGTACATATTTATTTATTATC [XGTACX_site7723] | 9.75
36 | CAAAATATTTAAAAAAGTACTTAAAATAAATTCAAA [XGTACX_site6866] | 9.58
37 | ATATTTAAATATATTTATATATATAAAAAAAAATAT [GTGCAC_negctrl_site312] | 9.62
38 | AAAAAGAACACAAAAAGTACAAAAATTATAATGATA [XGTACX_site2676] | 9.92
39 | AAACTTCAAAAAGAGCACTTGAATTTTTTTTTTTTT [TGCATGCA_negctrl_site133] | 9.37
40 | AATATGTTTTACGTCTCACACATATAGGTTTATATT [CACACA_site4713] | 9.83
41 | CATAAATACAAATATACACACATATTTATATTTATA [CACACA_site7277] | 9.78
42 | ATTATACTTTCCATTCGTACATATATAAATAAATAA [XGTACX_site6245] | 9.48
43 | ATATATAGATGTGAATTATTTATATTATCTATTCTT [CACACA_negctrl_site518] | 9.61
44 | TATTTAAAATAATAACAAAATTAACATAAATATATA [GTGCAC_negctrl_site472] | 9.41
45 | AACAATAAATTATTATGTACACATATATTATATATA [XGTACX_site4629] | 9.61
46 | ATATTTTAAAATAATACACACAAAATGATTCTTAAT [CACACA_site2930] | 9.81

Row | Sequence | gcPBM binding intensity (ln)
47 | ATAAGTATTACTAGTACACACAAGTTGTTAATCCTT [CACACA_site3324] | 9.95
48 | TATATTATATAATTTTAACACACAAGAATATAAACT [CACACA_site8378] | 9.76
49 | ATTTATAAAATATAATTACATTTTTAAATAATAAAA [GTGCAC_negctrl_site43] | 9.18
50 | TTACGATTTAAAATGGGTACATATATATGAAAAAAA [XGTACX_site545] | 9.32
51 | CTTATGTGCATACCTACACACTTACCTATATTTATA [CACACA_site7411] | 9.94
52 | ATATAATCTGAGTGCACACAAATAAATAAACATACA [CACACA_site422] | 10.4
53 | TAAAAGGATGCATATACACACATATAGATTTATATA [CACACA_site7336] | 10.1
54 | TTTTTTTTGTATTTTTCACACACACCGAAGTAAACA [CACACA_site8575] | 10.3
55 | AGTTGCATACATTGAAGTACAGAACATTTATATATA [XGTACX_site240] | 9.67
56 | TTTTTCCTTATTAATACACACATTCACCTTTTAAAT [CACACA_site479] | 9.91
57 | GTATTTATGTGTTTGGTGCAAGGGAGAATTTTTTTT | 9.87
58 | TCAAAGTAAAACAGGACATGCACAGAACATCCTGCC [TGCATGCA_site2] | 9.67
59 | AAAAAAAAAACATACACACACATATAGATTTATATG [CACACA_site6847] | 10.2
60 | TAAAGAAAAATATAAAGTACAAAAATAAAAAAAATA [XGTACX_site8226] | 9.66
61 | TACACAAAGTTACATACACACTAATATTTACACCAT [CACACA_site6602] | 10
62 | GAGAGAGAAATATGCACACATAAGGGAAATAAATAA [CACACA_site1153] | 10.1
63 | GAAAAAAAAAGTTAAGCACACACATGAATAAATAAT [CACACA_site8179] | 10.3
64 | TTTTGATGCTTTAAATGTACAAGGGTTCTTATGAAA [XGTACX_site831] | 9.31
65 | TGTATATAATTTATATGTACATATATTTTATTTTGT [XGTACX_site1905] | 9.66
66 | AAAAAAAAAAAATAGAAAAAAAAATAAAATAAAAAA [CACACA_negctrl_site562] | 9.5
67 | ATTATGCACGGACACACACACACACCCCTAAAAAAT [CACACA_site5426] | 11.4
68 | TGTTAACCACAAAAATAAAATAAAATAAAAATAATA [XGTACX_negctrl_site535] | 9.52
69 | TGATAAATATTATGTTGTACTTTCTGCCCTTCACAT [XGTACX_site5168] | 9.59

Row | Sequence | gcPBM binding intensity (ln)
70 | TTTCCCATAGGAAAAACACACATATATTATAGATAA [CACACA_site7019] | 9.57
71 | TATGCTATTATATATGTACACACCAATTTATTTATA [CACACA_site3918] | 9.78
72 | AAAACATATTTTAAAAGTACTTGAAAAAAAATTTTC [XGTACX_site3940] | 9.44
73 | AAACCAAAAATAACACGTACAAAAATAAAAAGTATA [XGTACX_site4261] | 10.3
74 | GAGAGAGAAATAAAAAGTACATACATATATATACAT [XGTACX_site2267] | 9.75
75 | TGGAGATTTTTAAAGACACACAGGTAAGAATAATAA [CACACA_site1582] | 9.77
76 | ACCATTTTTATGTATAAACACACGTACCCGCACTAA [CACACA_site1604] | 9.77
77 | AAAAAAAACAGACACATACACACAAAAATGTTATAA [CACACA_site82] | 10.9
78 | TTATACCTATATTTAACACACATTTGATAAAGTGCC [CACACA_site6732] | 9.66
79 | AAAAAATTTGTTTATTGTACAGAAAGAATTATTATA [XGTACX_site6549] | 9.48
80 | TTGTAGGTAAATATGTGTACGCATTATTATTCTTAA [XGTACX_site216] | 9.58
81 | AATATAAACACAAACACACACATATAGATTTATATA [CACACA_site6263] | 10.3
82 | CACAATGGTTTATATACACACTGTTGCAAATTCTTC [CACACA_site5659] | 9.7
83 | AATATATAAATTGACACACACATATATACCTATATA [CACACA_site4803] | 10.5
84 | ATTTTTTTATTTTTGTGTACTTATAAGAATATTAAT [XGTACX_site4850] | 9.58
85 | AATGAATATATTTATTGTACATATATGAATATTGCA [XGTACX_site8689] | 9.61
86 | AAAAAAAAAAAAAAAAGTACAAAAAGGAGAAAGATA [XGTACX_site7862] | 9.59
87 | TATTTTTTATGATTAACACACACACTAATAAAAAAA [CACACA_site9370] | 10.1
88 | TATATATATATATATAGTACGCACACATAGTTGCAA [XGTACX_site5875] | 9.84
89 | ATTCTTACTAATATCGCACACACATATGTAGACGGG [CACACA_site88] | 9.94
